Measurements from PubChem BioAssay AID1508624 (National Center for Advancing Translational Sciences (NCATS), 2021).
Among all 48,000 compounds or so, about 120 (0.25%) were called active. Another 4% or so got no clear call; they are omitted. Calls follow the shape of the dose curve; as a rule, active = well fitted activation curve with a large enough effect; inconclusive = small, poorly fitted or top-dose-only effect, or another doubt; inactive = no such curve, though single readings can be large or run the other way. Some of the results follow.

Assay: Primary qHTS for Identification of Small Molecule Activators of Huntingtin-Antisense Promoter Activity; also: nearly all actives have a fitted effect of over 55% in size
Details: HEK293 HTT-AS promoter firefly luciferase reporter (activity 0% = vehicle and -100% = no light), 24 h; series mostly up to 57.5 µM; activity change, positive = activation: at the top concentration
In short: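 HEK293 cells carrying firefly luciferase reporters were seeded at 2,500 per well in Opti-MEM and cultured for 24 h. They were then treated with compounds at up to 57.5 uM final for 24 h at 37 degrees C before Dual-Glo luminescence readout.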
With `COC(=O)C1CCN(CC(=O)Nc2cc(C)c3c(=O)oc4ccccc4c3n2)CC1` the “activity change, positive = activation” value was inactive: -3.96%.
For `O=C(Nc1nnc(S(=O)(=O)N2CCCc3ccccc32)s1)c1cccc(F)c1`, the “activity change, positive = activation” value was inactive: -91.4%.
With `COc1ccc(N(C(=O)c2cccc(C)c2)S(=O)(=O)c2ccc(C)cc2)cc1` the “activity change, positive = activation” value was inactive: -29.4%.
For `O=C(CCC1N=C2c3ccccc3N=C(SCc3ccccc3F)N2C1=O)NCCc1ccccc1` (stereo not drawn), the “activity change, positive = activation” value was inactive: 5.38%.
With `Cc1cc(C)c(NC(=O)Cn2ccn(-c3cccc(Cl)c3)c(=O)c2=O)c(C)c1` the “activity change, positive = activation” value was inactive: -15.4%.
In the case of `CCOC(=O)c1ccc(NC(=O)c2c(C)nn(-c3ccc(F)cc3)c2-n2cccc2)cc1`, the “activity change, positive = activation” value is reported as inactive: 6.54%.
With `Cc1ccc2c(c1)N(C(=O)C1CCN(S(=O)(=O)c3c(C)noc3/C=C/c3ccccc3F)CC1)CCO2` the “activity change, positive = activation” value was inactive: 0.44%.
With `CCn1c(SCc2ccc(F)cc2Cl)nnc1-c1nonc1NC(C)=O` the “activity change, positive = activation” value was inactive: -22.3%.
In the case of `CCOc1ccc(CNC(=O)c2cccc(NC(=O)N3CCSc4ncccc43)c2)cc1`, the “activity change, positive = activation” value is reported as inactive: -16.4%.
With `COc1ccc(CNC(=O)c2ccc3nc(CCc4ccccc4)oc3c2)cc1OC` the “activity change, positive = activation” value was inactive: -55.8%.
In the case of `CCn1c(C(=O)N2CCC(C(=O)N3CCN(c4cc(C)ccc4C)CC3)CC2)cc2sccc21`, the “activity change, positive = activation” value is reported as inactive: -28.3%.
With `C[C@H]1[C@H](NC(=O)/C(=N/OC(C)(C)C(=O)O)c2csc(N)n2)C(=O)N1S(=O)(=O)O` (stereo in doubt) the “activity change, positive = activation” value was inactive: -3.85%.
For `CC(=O)N1CCc2cc(S(=O)(=O)NC(CC(C)C)C(=O)Nc3ccc(C(C)C)cc3)ccc21` (stereo not drawn), the “activity change, positive = activation” value was inactive: -4.55%.
In the case of `CC(=O)N1c2ccc(S(=O)(=O)N3CCCCCC3)cc2CC1C(=O)NC(C)C` (stereo not drawn), the “activity change, positive = activation” value is reported as inactive: 1.88%.
For `CCOC(=O)c1c(C)sc(-c2c(-c3ccc4c(c3)OCCO4)[nH]c3c2c(=O)n(C)c(=O)n3C)c1O`, the “activity change, positive = activation” value was inactive: -22%.
With `Cc1cc(-c2ccc(C)c(S(=O)(=O)N3CCC(C)CC3)c2)on1` the “activity change, positive = activation” value was inactive: -40.6%.
For `CCOC(=O)N1CCc2c(sc3c2c(=O)n(Cc2ccccc2)c(=O)n3Cc2cc(C)ccc2C)C1`, the “activity change, positive = activation” value was inactive: -7.57%.
With `CCCNC(=O)c1cnn2c(C)c(Cc3c(C)cc(C)cc3C)c(C)nc12` the “activity change, positive = activation” value was inactive: -47.4%.
For `COc1ccc(NC(=O)c2cc3nc(-c4ccc(Cl)c(Cl)c4)cc(C(F)(F)F)n3n2)c(OC)c1`, the “activity change, positive = activation” value was inactive: -8.61%.
For `Cc1sc2ncn(CC(=O)Nc3ccc(F)cc3F)c(=O)c2c1S(=O)(=O)N1CCC(C)CC1`, the “activity change, positive = activation” value was inactive: 1.15%.
In the case of `CCOc1ccccc1NC(=O)N1CCC(n2c(C)nc3cccnc32)CC1`, the “activity change, positive = activation” value is reported as inactive: 9.21%.
In the case of `COc1ccc(CNC(=O)CCc2cn(C)c3ccccc23)cc1`, the “activity change, positive = activation” value is reported as inactive: -12%.
For `COc1ccc(C(=O)NC2CC(=O)N(c3ccc4c(c3)OCCO4)C2)cc1` (stereo not drawn), the “activity change, positive = activation” value was inactive: -14.2%.
With `COc1cccc(N2CCN(S(=O)(=O)c3cn(C)c(C)n3)CC2)c1` the “activity change, positive = activation” value was inactive: -6.11%.
For `CCC1Oc2ccc(C)cc2N(CC(=O)NCc2ccc(OC)cc2)C1=O` (stereo not drawn), the “activity change, positive = activation” value was inactive: -15.9%.
With `CCCCN1C(=O)c2[nH]nc(-c3ccccc3O)c2C1c1ccc(C(C)(C)C)cc1` (stereo not drawn) the “activity change, positive = activation” value was inactive: -60.8%.
For `CCCn1c2ccccc2c2cnn(CC(=O)NCc3ccccc3Cl)c(=O)c21`, the “activity change, positive = activation” value was inactive: -28.3%.
With `CCN(CC)CCCNC(=O)Cc1ccc(NC(=O)N2CCCCc3ccccc32)cc1` the “activity change, positive = activation” value was inactive: -8.4%.
With `O=c1oc2ccccc2cc1-c1nnc(Nc2ccc(Cl)cc2Cl)s1` the “activity change, positive = activation” value was inactive: 4.55%.
With `CC(=O)NC1CC(=O)N(c2ccc3c(c2)OCCO3)C1` (stereo not drawn) the “activity change, positive = activation” value was inactive: -1.31%.
With `Cc1ccc(-c2nc3cc(Cl)ccc3o2)cc1NC(=O)c1cc([N+](=O)[O-])ccc1N1CCOCC1` the “activity change, positive = activation” value was inactive: 6.85%.
With `Cc1nc(-c2ccccc2)sc1-c1ccc(SCC(=O)Nc2cccc(C(F)(F)F)c2)nn1` the “activity change, positive = activation” value was inactive: -5.28%.
For `CCC(=O)N1CCc2cc(Br)cc(S(=O)(=O)N3CCC(C(=O)Nc4ccccc4CC)CC3)c21`, the “activity change, positive = activation” value was inactive: -3.02%.
For `COc1cccc(C2CC(=O)Nc3cc4c(cc32)OCO4)c1OC(C)C` (stereo not drawn), the “activity change, positive = activation” value was inactive: -36.9%.
In the case of `COc1cc(OC)c(NC(=O)C2CCN(C(=O)c3sc4nc[nH]c(=O)c4c3C)CC2)cc1Cl`, the “activity change, positive = activation” value is reported as inactive: -22.9%.
With `CC(C)Oc1ccc(CNC(=O)C2CCN(c3nc4ccccc4nc3C(F)(F)F)CC2)cc1` the “activity change, positive = activation” value was inactive: 1.15%.
In the case of `CCc1nn(CCCC(=O)N2CCN(c3cc(Cl)ccc3C)CC2)c(=O)c2cc3occc3n12`, the “activity change, positive = activation” value is reported as inactive: -35.7%.
With `COc1ccc(CC(=O)NC2CC(=O)N(c3cccc(F)c3)C2)cc1OC` (stereo not drawn) the “activity change, positive = activation” value was inactive: -4.71%.
With `CCOC(=O)c1c(C)n(S(=O)(=O)c2ccc(C)cc2C)c2ccc(NS(=O)(=O)c3ccc(C)cc3C)cc12` the “activity change, positive = activation” value was inactive: -32.2%.
With `COc1ccccc1Nc1sc(C(=O)c2ccc3c(c2)OCO3)c(N)c1S(=O)(=O)c1ccccc1` the “activity change, positive = activation” value was inactive: -17%.
For `Cc1cc(C)nc(NC(=NCCc2c[nH]c3ccc(Cl)cc23)NC(=O)c2ccccc2C)n1`, the “activity change, positive = activation” value was inactive: -9.12%.
For `COC(=O)C1=C(C)NC(=O)C1(NC(=O)c1cc(OC)c(OC)c(OC)c1)C(F)(F)F` (stereo not drawn), the “activity change, positive = activation” value was inactive: -12%.
In the case of `CCOC(=O)c1c(NC(=O)c2ccc(S(=O)(=O)N3CCC(C)CC3)cc2)sc2c1CCN(CC)C2`, the “activity change, positive = activation” value is reported as inactive: -25.5%.
For `C=Cc1ccc(Cn2nc(-c3ccc(C)cc3)ccc2=O)cc1`, the “activity change, positive = activation” value was inactive: -14.7%.
With `Cc1cccc(-n2cc(-c3ccccc3)c3c(NC4CCCC4)ncnc32)c1` the “activity change, positive = activation” value was inactive: -27.8%.
For `O=C(NC1CCCCC1)c1ccc(CSc2nc3cccnc3n2Cc2ccc(F)cc2)cc1`, the “activity change, positive = activation” value was inactive: -5.44%.
For `CCOC(=O)c1c(S(=O)(=O)N2CCCC(C(=O)Nc3cc(C)ccn3)C2)c(C)n(C)c1C` (stereo not drawn), the “activity change, positive = activation” value was inactive: 10.3%.
With `O=C(c1cc(O)c(O)c(O)c1)c1ccc(O)c(O)c1O` the “activity change, positive = activation” value was inactive: -0.416%.
For `COc1ccc(OC)c(NC(=O)C2CCN(S(=O)(=O)c3ccc4c(c3)CCCC(=O)N4)CC2)c1`, the “activity change, positive = activation” value was inactive: -14%.
In the case of `CCOC(=O)c1ccc(NC(=O)CCC(=O)N2Cc3ccccc3Oc3ncccc32)cc1`, the “activity change, positive = activation” value is reported as inactive: -22.5%.
With `O=C1CC(c2nnc(Cc3ccc(F)cc3Cl)o2)CN1c1ccccc1` (stereo not drawn) the “activity change, positive = activation” value was inactive: 9.74%.
With `O=C(CN1C(=O)COc2ccc(S(=O)(=O)N3CCCC3)cc21)N1CCN(c2ccc(F)cc2)CC1` the “activity change, positive = activation” value was inactive: -21.3%.
For `Cc1cccc(-n2c(Cc3ccccc3)nnc2SCc2nc(-c3cccs3)no2)c1`, the “activity change, positive = activation” value was inactive: -31.8%.
In the case of `O=C1c2[nH]nc(-c3ccccc3O)c2C(c2ccccc2F)N1Cc1cccnc1` (stereo not drawn), the “activity change, positive = activation” value is reported as inactive: -10.7%.
For `CCOC(=O)c1ccc(N2C(=O)c3n[nH]c(-c4ccco4)c3C2c2ccc(O)c(OCC)c2)cc1` (stereo not drawn), the “activity change, positive = activation” value was inactive: -57.7%.
For `Cc1cccc(Nc2nnc(-c3ccc(C)c(S(=O)(=O)NCC4CCCO4)c3)c3ccccc23)c1` (stereo not drawn), the “activity change, positive = activation” value was inactive: -36.5%.
In the case of `COCCCNC(=O)c1cnc2c(-c3ccc(F)cc3)c(C)nn2c1C`, the “activity change, positive = activation” value is reported as inactive: -0.176%.
With `CCOC(=O)C1CCN(C(c2cccc(F)c2)c2c(O)cc(C)n(Cc3ccco3)c2=O)CC1` (stereo not drawn) the “activity change, positive = activation” value was inactive: -8.2%.
